Measurements: article PMC12136788
The other results are listed elsewhere or left out.

B1: chr18:12984129:12984130:+_ENSG00000085415_ENST00000262124|hu_mus|FALSE|FALSE (ssRNA)
RNA: GGGAGUUCUACAGUCCGACGAUCCUUUCUGCUAGCAGAAGUUCCAUUUAAUGAAUUUUGAAGAUUUGGAAUAUUUGAGCUCAGUGAAGGAUUUGAGUUUCCCAGCUGAGAACUCCCAUUUACUGGGCUCCCGUUACCUUUCAACAACAGAGGAUUGAGCAUCA
B2: chr8:96496865:96496866:-_ENSMUSG00000031751_ENSMUST00000053766|mus_hu|FALSE|FALSE (ssRNA)
RNA: GGGAGUUCUACAGUCCGACGAUCGCAGUCCAGUCAACACCAGAAGAGAUCAUACCUACAGUUAAAAUUUGCAGUGUUUCUAAGGGGAAGAGAAAUGUCACAUAGAAAGUAUUACAAAGAAGGAUUAAAUUUAUCAGCUGUCCACAACAGAGGAUUGAGCAUCA
B3: chr10:112764417:112764418:+_ENSG00000108061_ENST00000369452|hu_mus|FALSE|FALSE (ssRNA)
RNA: GGGAGUUCUACAGUCCGACGAUCAAUGGUGGAAAACUGAGAUGGACCUCCCACUGGAUAUAACUGGAAGCAAUUUCUAGCUAAGGUCAAGCUAUUCAAUUUUACAAGACUGGAUAAAAGACUCUCUGGUAGAGUAGAAAUGUUCAACAGAGGAUUGAGCAUCA
B4: 126435287_126435407_3139_3pUTR_ENSMUSG00000078429_ENSMUST00000105256|mouse|control|control (ssRNA)
RNA: GGGAGUUCUACAGUCCGACGAUCGUAACAGGGCUCCCAUGAAGCCACACUGGGCUUUGGUCACAUGGAGAACCAAGAAGCCAGAAAGGGACCUUAAAAUUCAAUCAACUCUGAGGCUCUUAUUGCUUAGUCAAGACCAGCCCUCAACAGAGGAUUGAGCAUCA
B5: chr21:34823002:34823003:-_ENSG00000142188_ENST00000542230|hu_hu|motif|central (ssRNA)
RNA: GGGAGUUCUACAGUCCGACGAUCGUAUUAUAUACAUAUUAACAGUCUAUGCAAUGAAAAAUAAAGAAAUUUCAUAAAACGGUUUCAAAACUCAGAACAUAAAAAUGUAAAGAAACAAAACAUUUAAUGUACAAUCUACUCCAUCAACAGAGGAUUGAGCAUCA
B6: 61446075_61446195_865_CDS_ENSG00000126814_ENST00000261249|human|control|control (ssRNA)
RNA: GGGAGUUCUACAGUCCGACGAUCAAAGUGUUCAUAUGUUAGUUCCAAAUUGUAUUUAGAGAUCUGUGGACUGACAUUAAGCUGCUCUAAAACACUGAGUUCUGCUUUCUCAAAGGAAUCAUGAGUAAAUAUUUUAUAGGGAUCCAACAGAGGAUUGAGCAUCA
B7: chr8:80577206:80577207:+_ENSG00000104435_ENST00000220876|hu_mus|FALSE|FALSE (ssRNA)
RNA: GGGAGUUCUACAGUCCGACGAUCUUUAUUUUAUUUUUGAUUCUGUUUUUUGUUUUGUUUUUCAUAAUGAGUUCUUUUUAAACCAUGUCAUACACUUCCCAUACUGAUAUCGCAUGAUCCAUUAUAAUAUAGGCAGGGGGAUUUCAACAGAGGAUUGAGCAUCA
B8: chr2:20889081:20889082:-_ENSMUSG00000036591_ENSMUST00000173194|mus_mus|FALSE|FALSE (ssRNA)
RNA: GGGAGUUCUACAGUCCGACGAUCUGUGGCCAUCAUUUCAUUUCAAAUUGUAAAGGGACAAAUCCUUUGGAGUCCACAUUGGAGAAGUGCCACCACACACCAAACGGGAAGCAAUUCCACAGCAGAUUCUGAGGCGAUGAAGGACAACAGAGGAUUGAGCAUCA
B9: chr1:111660612:111660613:-_ENSG00000156171_ENST00000539140|hu_hu|FALSE|FALSE (ssRNA)
RNA: GGGAGUUCUACAGUCCGACGAUCAAAGUAUAGGCAUAGGUGUUUUUAAUAGUCUUCUUGAUGAUAUCCUUUAGAAUAAUCUAUCAAAUGGCUUCUUUCAUGUUUCCUGAUUAUCAGCAUUCAUCAGUGUUACUGUCAGCCUUGCAACAGAGGAUUGAGCAUCA
B10: chr2:216981417:216981418:+_ENSG00000079246_ENST00000392132|hu_hu|hu_hu_hu_mus_True|58_88 (ssRNA)
RNA: GGGAGUUCUACAGUCCGACGAUCCUGAUACUGGUCCUUGCCAGCAAGGGGAUUGUCAGUGCCAUCUGUGCCAUAGAGGACUAAAGCAAUCUCAUCUUUGCUCUCCGAAAAUACCUGUCGUUGGACAAACAUAGUCAUCACUUUCAACAGAGGAUUGAGCAUCA
B11: chr1:163112212:163112213:-_ENSG00000143248_ENST00000313961|hu_hu|hu_hu_hu_mus_False|28_68 (ssRNA)
RNA: GGGAGUUCUACAGUCCGACGAUCUUUUAUUAUCAGUAAGAGUGAGUUACAUACUAGGCAAAGUAUUGAAUACAAAAAUCAGGAAACAAACACUAUUGGUCCAGAAUUUAAAAUAUAAUGAGCGAAGUGCUGGCACAGGACUUACAACAGAGGAUUGAGCAUCA
B12: chr9:119834795:119834796:+_ENSMUSG00000032512_ENSMUST00000036561|mus_mus|FALSE|FALSE (ssRNA)
RNA: GGGAGUUCUACAGUCCGACGAUCCAAACAUGAACCACAAUAUAAAUAUCAAACCAACUCACUGUGAGAUCUUUUUACUCUAGUAACAUAAACUUUAGGUAGCAUCUGAAUGAAACUGCAACUUCAGCAUGGCCGUAAGUUCUGCAACAGAGGAUUGAGCAUCA
B13: chr7:75932113:75932114:+_ENSG00000106211_ENST00000248553|hu_hu|hu_hu_hu_mus_False|38_38 (ssRNA)
RNA: GGGAGUUCUACAGUCCGACGAUCCUGCGACCACUCAUCGGGCAACCGGGGCACCCCGAAAGCUUGAUCGAAGAGGCGGCUGUGUGCAGGGUACCAGCGGAAGGGGUGUUCCCAGCUCGGGCUCCGCAGCAGCGAGAAGGGCACCAACAGAGGAUUGAGCAUCA
B14: 38107971_38108091_3725_3pUTR_ENSMUSG00000026083_ENSMUST00000027252|mouse|control|control (ssRNA)
RNA: GGGAGUUCUACAGUCCGACGAUCCAAACAUUUUGGGAGAUUCCCCAGGGAUAGGUUCUAUUUUGACACAGACCUCUUGUCCUUUUUUUGCAACAUCCACCUGCUUGUGGUUUAUUUCAAUGCUUGUUACUAUCCCAAUGUCAACAACAGAGGAUUGAGCAUCA

biological target: T1, UNK ZnF1-3 (human, UniProt Q9C0B0 31-174); assay: nsRBNS (natural sequence RNA bind-n-seq); RBNS binding buffer (assumed for nsRBNS): 25 mM Tris pH 7.5, 150 mM KCl, 3 mM MgCl2, 0.01% Triton X-100, 500 ug/ml BSA, 20 U/ml SUPERase-In, 4 C; UNK is unkempt and MSI1 is Musashi-1; names of the RNAs are library labels; protein concentration not given here; high values mean tight binding
T1 sequence: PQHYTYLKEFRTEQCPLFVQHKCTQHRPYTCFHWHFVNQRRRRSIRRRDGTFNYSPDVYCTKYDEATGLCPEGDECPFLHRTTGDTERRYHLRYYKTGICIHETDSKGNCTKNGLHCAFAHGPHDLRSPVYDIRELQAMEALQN

Going from B1 to B2, the binding signal rises from 0.343 enrichment R to 2.63 enrichment R.

Compared with B3, B4 is higher in binding signal: 1.17 enrichment R for the first, 1.18 enrichment R for the second.

Compared with B5, B6 is higher in binding signal: 0.529 enrichment R for the first, 1.14 enrichment R for the second.

First: B7
Second: B8
The binding signal of the first is lower: 0.946 enrichment R for the first, 1.7 enrichment R for the second.

First: B9
Second: B10
The binding signal of the first is lower: 0.777 enrichment R for the first, 1.35 enrichment R for the second.

First: B11
Second: B12
The binding signal of the first is higher: 1.73 enrichment R for the first, 1.1 enrichment R for the second.

Going from B13 to B14, the binding signal falls from 1.8 enrichment R to 0.544 enrichment R.
